Out of some 45,000 compounds screened, about 65 (0.1%) were called active. The call rests on the fitted dose curve; in most records, active means well fitted activation curve with a large enough effect; inconclusive means small, poorly fitted or top-dose-only effect; inactive means no such curve, though single readings can be large or run the other way. The list shows a part of the results.
Target: Galactocerebrosidase (Homo sapiens) (UniProt P54803)
Assay: A Novel Cell-Based Assay to Identify Small Molecules for B -Galactocerebrosidase; further: 0% is about no effect; nearly all actives have a fitted effect of over 65% in size
Conditions: 145M-Twi-hGALC-G270D cells (Twitcher mouse brain line with human GALC G270D), HMU-beta-Gal fluorescence, 48 h; series mostly up to 57.5 µM; activation: at the top concentration
Method in brief: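 Fluorogenic HMU-b-Gal hydrolysis (0.1 mM final, pH 5.2 citrate-phosphate with 1 mg/mL sodium taurocholate; carbonate stop buffer) measures mutant GALC activity after compound treatment of live 145M-Twi Twitcher brain cells stably carrying human GALC-G270D, with wild-type GALC line alongside; activation sought.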

UniProt P54803, sequence (P54803 whole entry, looked up): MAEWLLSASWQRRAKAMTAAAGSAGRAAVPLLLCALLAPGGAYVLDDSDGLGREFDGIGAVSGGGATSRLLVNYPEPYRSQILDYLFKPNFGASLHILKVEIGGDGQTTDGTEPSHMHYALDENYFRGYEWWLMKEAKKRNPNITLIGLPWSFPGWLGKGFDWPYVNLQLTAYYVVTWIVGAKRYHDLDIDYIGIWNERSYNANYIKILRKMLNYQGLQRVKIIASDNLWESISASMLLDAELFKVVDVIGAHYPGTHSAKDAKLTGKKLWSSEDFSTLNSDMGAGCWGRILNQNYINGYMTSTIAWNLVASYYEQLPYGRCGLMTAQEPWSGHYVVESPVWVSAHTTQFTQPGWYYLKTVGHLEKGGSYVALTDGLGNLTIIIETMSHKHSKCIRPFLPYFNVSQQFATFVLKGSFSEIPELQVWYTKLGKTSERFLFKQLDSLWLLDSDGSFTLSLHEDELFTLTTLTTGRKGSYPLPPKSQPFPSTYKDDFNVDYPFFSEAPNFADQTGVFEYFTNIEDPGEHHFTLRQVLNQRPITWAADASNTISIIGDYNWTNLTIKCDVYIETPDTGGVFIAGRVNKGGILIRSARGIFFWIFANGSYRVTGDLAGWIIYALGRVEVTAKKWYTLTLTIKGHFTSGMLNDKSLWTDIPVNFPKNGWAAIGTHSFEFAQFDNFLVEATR

Row | SMILES | activation
1 | Cc1ccc(CNC(=O)C2CCN(S(=O)(=O)c3c(C)noc3/C=C/c3c(C)cc(C)cc3C)CC2)cc1 | inactive: -14%
2 | CSc1ncc(C(=O)NCc2ccc(C)cc2)c(-c2ccccc2)n1 | inactive: -12.9%
3 | Oc1c(Br)cc(Br)c2cccnc12 | inactive: -13.1%
4 | CCOC(=O)c1c(C)oc2ncnc(Nc3cc(Cl)ccc3OC)c12 | inactive: -12.4%
5 | Nc1nc(=O)n([C@@H]2O[C@H](CO)[C@@H](O)[C@@H]2F)cc1I | inactive: 1.43%
6 | CCOc1ccc(C(=O)Nc2ccccc2OCc2cc(=O)n3ccccc3n2)cc1 | inactive: -7.58%
7 | Cc1cc(C(=O)Nc2cccc(F)c2)c2c(C)nn(-c3cccc(Cl)c3C)c2n1 | inactive: -8.48%
8 | CCc1nn(CC(=O)NCc2ccc(OC)c(OC)c2)c(=O)c2cc3sc(C)cc3n12 | inactive: -18.7%
9 | Cc1ccccc1C(=O)OCc1cc(=O)n2c(C)csc2n1 | inactive: 0.902%
10 | CCCNC(=O)c1cnc2sc(N3CCCCCC3)nn2c1=O | inactive: -12.6%
11 | CCOC(=O)c1c(NC(=O)c2cc3nc(-c4ccccc4)cc(C(F)(F)F)n3n2)sc2c1CCC(C)C2 (configuration not stated) | inactive: -17.8%
12 | CCOC(=O)Cn1c(=O)n(-c2ccccc2OC)c2nc(-c3ccccc3F)nc(C(N)=O)c21 | inactive: 9.8%
13 | COc1ccc(CCNC(=O)c2nc(SCc3ccc(C)cc3)ncc2Cl)cc1OC | inactive: 6.36%
14 | CCOC(=O)N1CCC(=C2c3ccc(Cl)cc3CCc3cccnc32)CC1 | inactive: -9.41%
15 | CN(C)c1ccc(C(=O)Nc2cccc(-c3nc4cccnc4s3)c2)cc1 | inactive: -13.3%
16 | COc1ccccc1OCCCCn1c(-c2ccc(Cl)cc2)nc2ccccc2c1=O | inactive: -10.3%
17 | COc1cccc(Cn2c(SCC(=O)N(C)c3ccccc3)nc3ccccc32)c1 | inactive: -6.36%
18 | COc1cccc2cc(-c3csc(-c4ccc(Cl)cc4)n3)c(=O)oc12 | inactive: -12.6%
19 | O=C(Nc1ccc(C(F)(F)F)cc1)C1CCN(c2cnccn2)CC1 | inactive: -15.5%
20 | Cc1ccc(CCNC(=O)c2cc(C)nc3c2c(C)nn3-c2ccc(C)cc2)cc1 | inactive: -3.71%
21 | CCc1ccc(-c2nn(CC(=O)NCc3ccccc3)c3c2cnc2ccc(C)cc23)cc1 | inactive: -9.04%

Row | SMILES | activation
22 | CC(C)c1ccc(NC(=O)CCS(=O)(=O)c2cccc3nonc23)cc1 | inactive: -6.57%
23 | CCc1ccc(-n2nc(C)c3c(C(=O)Nc4cc(C)c(Cl)cc4OC)cc(C)nc32)cc1 | inactive: -8.45%
24 | CCCN(C(=O)COc1cc(=O)n(CC)c2ccccc12)c1ccc(C(C)C)cc1 | inactive: -43.3%
25 | CCOc1ccccc1NC(=O)Cn1c(=O)n(-c2ccc(F)cc2)c(=O)c2c3c(sc21)CN(C(C)=O)CC3 | inactive: -17.8%
26 | O=C(CN1CCSc2ccccc21)N1CCCCC1 | inactive: -0.396%
27 | Cc1ccc(CCNC(=O)c2ccc(CNS(=O)(=O)c3ccccc3)cc2)cc1 | inactive: 14.2%
28 | Cc1ccccc1CNC(=O)c1ccc(CSc2nc3cccnc3n2Cc2ccccc2)cc1 | inactive: -14.1%
29 | COC(=O)c1ccc(Cn2c(SCc3ccccc3)nc3ccncc32)cc1 | inactive: -9.61%
30 | Cc1ccc(-c2nc(CS(=O)(=O)CC(=O)NCc3ccc(Cl)cc3)c(C)o2)cc1 | inactive: -13.9%
31 | CCc1ccc(-n2c(SCc3ccccc3C)nc3[nH]ncc3c2=O)cc1 | inactive: -18.9%
32 | CCOC(=O)c1c(NC(=O)/C(C#N)=C/c2ccccc2)sc2c1CCC2 | inactive: -15.6%
33 | COc1cc(NC(=O)Cn2cnc3c2c(=O)n(C)c(=O)n3C)c(OC)cc1Cl | inactive: 3.45%
34 | Cc1cc(C)cc(NC(=O)Nc2ccccc2OCc2cc(=O)n3ccccc3n2)c1 | inactive: -15.9%
35 | CC(=O)Nc1ccc(NC(=O)c2cc3sccc3n2Cc2ccc(Cl)cc2)cc1 | inactive: -16.1%
36 | CCOc1cc(/C=C(\C#N)C(=O)Nc2ccc(C)cc2)ccc1OCc1cc(=O)n2nc(CC)sc2n1 | inactive: -4.75%
37 | CCOc1ccccc1NC(=O)c1c(NCc2cccs2)sc2c1CCCCC2 | inactive: -18.3%
38 | CCn1c(C)c(C)c2cc(C(=O)NCc3ccc(OC)cc3OC)ccc21 | inactive: -20%
39 | CCN(CC)S(=O)(=O)c1ccc(NC(=O)c2c(C)oc3ncnc(N4CCOCC4)c23)cc1 | inactive: -1.97%
40 | CCc1c(C)sc2c1CCN(C(=O)Nc1cc(Cl)c(OC)cc1OC)C2c1ccccc1 (configuration not stated) | inactive: -6.96%
41 | CCC(=O)N1CCc2cc(CNS(=O)(=O)c3ccc(NC(=O)CC(C)C)cc3)ccc21 | inactive: -6.08%
42 | COc1cccc2c1Oc1ncccc1N(C(=O)CCC(=O)NC(C)C)C2 | inactive: -2.3%

Row | SMILES | activation
43 | O=C(NOCC1CC1)c1ccc(F)c(F)c1Nc1ccc(I)cc1Cl | inactive: -11.9%
44 | C#CCn1cnc2c(cnn2-c2ccc(F)cc2)c1=O | inactive: -18.4%
45 | CCC(=O)N1CCc2cc(Br)cc(S(=O)(=O)CCC(=O)Nc3ccc(C)c(F)c3)c21 | inactive: -8.57%
46 | COc1ccc2c(c1)CC(C(=O)NCCCN1CCN(c3ccccc3F)CC1)CO2 (configuration not stated) | inactive: -8.01%
47 | CC(C)(C)c1ccc(C2=NC(C)(C)N(CC(=O)Nc3ccc(F)c(F)c3)C2=O)cc1 | inactive: -0.334%
48 | CCCNC(=O)C1CCN(Cc2cc3ccccc3n2Cc2ccccc2)CC1 | inactive: -6.8%
49 | COc1cc(C)ccc1OCCSc1nc2ccc(NC(=O)c3ccc(C)cc3)cc2s1 | inactive: 2.18%
50 | CC1(C)CC(=O)c2cc(-c3nc(-c4ccc(Cl)cc4)cs3)c(=O)n(-c3cccc(F)c3)c2C1 | inactive: 6.95%
51 | COc1ccccc1NC(=O)CCn1cnc2onc(-c3ccc(F)cc3)c2c1=O | inactive: -9.01%
52 | COc1ccccc1-c1noc(-c2ccc(NCc3cccnc3)c([N+](=O)[O-])c2)n1 | inactive: -14.3%
53 | CCCSc1nnc2c(n1)OC(c1ccc(OCC(=O)O)cc1)Nc1ccccc1-2 (configuration not stated) | inactive: -1.99%
54 | O=C(CN1C(=O)CC(c2ccco2)Sc2ccccc21)Nc1ccc(Br)cc1 (configuration not stated) | inactive: -4.06%
55 | COc1ccc(-c2ccc(CCC(=O)O)n2CC(=O)Nc2cccc(Cl)c2C)cc1 | inactive: -10.6%
56 | Cn1cc(C(=O)NCCc2ccccc2)c(=O)c2cc(S(=O)(=O)N3CCCCCC3)ccc21 | inactive: -20.3%
57 | Cc1c(C(=O)N(Cc2ccc(N(C)C)cc2)Cc2ccco2)oc2cc(Br)ccc12 | inactive: -20.7%
58 | COc1ccc(CNC(=O)CCc2c(C)nc3nc(CNC(=O)OC(C)(C)C)nn3c2C)cc1 | inactive: -2.32%
59 | CC(=O)c1cccc(Nc2nn(-c3ccc(OC(F)(F)F)cc3)nc2C(C)=O)c1 | inactive: -10.8%
60 | COc1cccc(C(c2sc3nc(-c4ccco4)nn3c2O)N2CCN(c3ccccc3F)CC2)c1 (configuration not stated) | inactive: -26.3%
61 | CCOc1ccc(N(C(C)C(=O)NCCSc2ccc(C)cc2)S(C)(=O)=O)cc1 (configuration not stated) | inactive: -16.6%
62 | CCCCn1cc(S(=O)(=O)c2ccc(CC)cc2)c(=O)c2cc(F)c(N3CCOCC3)cc21 | inactive: -18.7%
